Test results from PubChem BioAssay AID488969 (Vanderbilt High Throughput Screening Facility, 2010).
In all, about 110,000 compounds were measured (“z-score”: median about -0.1, highest 2% from about 2 on). The list shows a part of the results. Calls of active or inactive are those of the source.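 Rule for the calls: active = z-score in the third read window above 3 or below -3; inactive = the rest.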

Target: Metabotropic glutamate receptor 8 (Rattus norvegicus) (UniProt P70579)
Assay: rat mGluR8 modulators via GIRK flux, primary screen, cell-based, thallium flux, HTS (AID 488969)
Conditions: HEK293 rat mGluR8, GIRK (G protein-gated inwardly rectifying potassium channel) thallium flux, FluoZin2; at 10 µM; stronger effect = higher value; submaximal glutamate (EC20) added with thallium

UniProt P70579, sequence (P70579 whole entry, looked up): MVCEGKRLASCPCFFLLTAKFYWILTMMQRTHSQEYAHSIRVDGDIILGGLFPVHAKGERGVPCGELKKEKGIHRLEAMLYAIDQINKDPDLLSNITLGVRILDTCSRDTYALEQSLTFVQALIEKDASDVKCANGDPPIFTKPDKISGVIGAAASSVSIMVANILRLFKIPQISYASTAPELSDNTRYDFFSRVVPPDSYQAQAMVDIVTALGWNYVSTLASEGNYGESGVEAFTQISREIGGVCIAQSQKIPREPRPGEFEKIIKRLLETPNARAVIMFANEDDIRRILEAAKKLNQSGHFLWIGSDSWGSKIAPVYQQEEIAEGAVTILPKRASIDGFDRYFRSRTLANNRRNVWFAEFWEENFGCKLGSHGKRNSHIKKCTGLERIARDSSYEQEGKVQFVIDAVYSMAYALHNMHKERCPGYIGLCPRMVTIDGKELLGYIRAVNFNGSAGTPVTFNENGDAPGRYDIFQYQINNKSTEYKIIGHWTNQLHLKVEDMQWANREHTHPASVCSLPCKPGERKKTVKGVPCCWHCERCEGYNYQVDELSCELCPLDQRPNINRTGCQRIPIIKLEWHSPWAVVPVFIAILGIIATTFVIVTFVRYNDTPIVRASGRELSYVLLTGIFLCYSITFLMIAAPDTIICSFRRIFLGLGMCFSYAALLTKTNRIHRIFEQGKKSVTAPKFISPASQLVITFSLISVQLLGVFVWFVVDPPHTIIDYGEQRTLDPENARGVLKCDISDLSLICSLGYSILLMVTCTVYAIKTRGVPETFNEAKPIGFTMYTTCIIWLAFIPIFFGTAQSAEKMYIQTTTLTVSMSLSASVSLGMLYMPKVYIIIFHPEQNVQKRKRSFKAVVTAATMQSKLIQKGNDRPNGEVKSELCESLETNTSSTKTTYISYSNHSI

SMILES | z-score
CCCCCc1nnc(NC(=O)Cn2cnc3ccccc3c2=O)s1 | -0.129
CCCCCOC(=O)C1=C(C)Nc2ncnn2C1c1cccs1 (stereo unspecified) | -1.21
Cc1ccc(S(=O)(=O)c2cc3cc(Br)ccc3oc2=O)cc1 | 0.115
O=C(O)CSc1nnc(Cn2cnc3ccccc32)n1CCc1ccccc1 | 0.335
Cc1ccc2nc(NC(=O)c3ccc(S(=O)(=O)N4CCCc5ccccc54)cc3)sc2c1 | -0.487
CCOC(=O)CCc1c(C)nc2ncnn2c1C | 0.0118
CC(=O)OCn1nnc2ccccc2c1=O | -0.386
c1cnc(Nc2nc(-c3ccc4ccccc4c3)cs2)nc1 | -0.78
CC(CCc1ccccc1)NC(=O)C(=O)Nc1ccccc1 (stereo unspecified) | -0.109
CC(=O)c1ccc(OCC(O)CN2CC(C)OC(C)C2)cc1 (stereo unspecified) | -0.391
COCC(C)NCc1cccc(OC)c1OC (stereo unspecified) | 0.763
O=C1CN(C(=O)COC(=O)CCC(=O)c2ccc3c(c2)OCCO3)c2ccccc2N1 | -0.323
CCOC(=O)C(NC(=O)c1ccccc1)=C1C=C(C)OC(C)=C1 | -0.135
O=C(CCCSc1nc2ccccc2s1)NC1=NCCS1 | -0.337
CC(C)C(=O)NCCc1nc2ccccc2n1C | 0.0935
O=C(O)c1cccc(CSc2nnc(-c3ccco3)o2)c1 | -0.112
Cc1cc(C)nc(/N=C(\N)Nc2cc([N+](=O)[O-])ccc2C)n1 | -0.704
O=C(NCc1ccco1)C(c1ccccc1)N(C(=O)Cc1cccs1)c1ccccc1F (stereo unspecified) | -0.964
COc1cccc(-n2c(SCC(=O)N3CCCC3)nc3c([nH]c4ccccc43)c2=O)c1 | -0.189
COc1cccc(/C=N/NC(=O)CCc2ccccc2)c1 | -0.247
CCC(C)C(NC(=O)C1CCC(C)CC1)C(=O)NCc1cccnc1 (stereo unspecified) | 0.171
CCN1CCN(CCCNC(=O)C2c3ccccc3C(=O)N(C)C2c2ccc(OC)cc2)CC1 (stereo unspecified) | -0.204
CC(=O)Nc1ccc(-c2cc(-c3ccc(NC(C)=O)cc3)nc(-c3ccccc3)n2)cc1 | -0.104

SMILES | z-score
Cn1c(=O)c2c(n(C)c1=O)=NC1(CCCCC1)N=2 | 0.287
Cn1c(/C=N/c2nc3ccccc3[nH]2)nc2ccccc21 | -0.377
O=C(Cc1ccccc1)NN1C(=O)C2C3C=CC(C3)C2C1=O (stereo unspecified) | -0.0994
COC(=O)c1cn(NC(=O)c2cccnc2)c(=O)c2ccccc12 | 0.426
Cc1ccc(-c2csc(NC(=O)C3=COCCO3)n2)cc1 | -0.193
Cc1ccc(C2c3c(oc4ccc(Cl)cc4c3=O)C(=O)N2CCCN2CCOCC2)o1 (stereo unspecified) | active: 3.95
CCOC(=O)C1=C(c2ccccc2)NC(SCC(=O)NC2CCCCC2)=C(C#N)C1c1ccco1 (stereo unspecified) | -0.181
Cn1c(=O)c2c(nc(CN3CCOCC3)n2Cc2ccccc2)n(C)c1=O | 0.252
COc1ccc(NC(=O)c2ccc(CNc3c(NC4CCCCC4)c(=O)c3=O)cc2)cc1OC | -0.0252
CNC(=O)COc1ccc(C=O)cc1OC | -0.17
Cc1cc(NCCCn2ccnc2)n2nc(-c3ccc(F)cc3)cc2n1 | -0.0109
C=CCNC(=S)NNC(=O)c1csc(CC)c1 | -0.158
O=[n+]1cc(-c2ccc(Br)cc2)n([O-])c2c1CCC2 | -0.244
COCCN(C(=O)COc1ccc(Cl)cc1)c1nnc(-c2cccnc2)s1 | -0.163
NS(=O)(=O)c1ccc(CCNC(=O)C2CCN(S(=O)(=O)c3cnc[nH]3)CC2)cc1 | -0.00955
CC(=O)c1ccc(NC(=O)CCCN2C(=O)/C(=C/C(C)=C/c3ccccc3)SC2=S)cc1 | -1.43
NS(=O)(=O)c1ccc(NC(=O)CSc2nnc(-c3cnccn3)n2-c2ccccc2)cc1 | -0.0471
Cc1[nH]nc2c1C(c1ccccc1F)NC2=O (stereo unspecified) | 2.74
Cc1ccc(NC2OC(CO)C(O)C(O)C2O)cc1 (stereo unspecified) | -0.358
CC(=O)Nc1ccc(S(=O)(=O)Nc2nccc(C3Cc4ccccc4C(=O)O3)n2)cc1 (stereo unspecified) | -0.618
CCOC(=O)/C(=N\Nc1ccccc1Cl)N1CCN(C)CC1 | -0.243
COC(=O)CNC(=O)c1c(C)cc(=O)oc1C | -0.289
O=C(Nc1ccc(Br)cc1)C1CC=CCC1C(=O)OCC1CCCO1 (stereo unspecified) | 0.616

SMILES | z-score
CCCCOc1ccc(CN(C)c2ncnc(N)n2)cc1 | -0.455
Cc1ccc(C(=O)Nc2nc(=O)n(C(=O)c3ccccc3Cl)s2)cc1 | -2.59
Fc1cc(F)c2nc(Nc3nc4cc5c(cc4s3)OCO5)sc2c1 | 1.9
S=C(NCCCN1CCOCC1)Nc1ccc(Cl)cc1Cl | -0.284
COc1cccc(-c2cc(C(F)(F)F)n3ncc(C(=O)O)c3n2)c1 | 0.569
Cc1ccc(NC(=O)CSC2=C(C#N)C(c3ccc4c(c3)OCO4)C3=C(CCCC3=O)N2)c(C)c1 (stereo unspecified) | -0.933
CC(C)CNC(=O)COC(=O)c1cncc(Br)c1 | -0.113
Cc1ccc(SCCC(=O)N2CCOCC2)cc1 | -0.213
CCc1cc2c3c(c1)C1(C(=O)N3C(C)(C)CC2C)C(C#N)=C(N)N2C(=C1C#N)Nc1ccccc12 (stereo unspecified) | 0.187
Cc1c(C)n(Cc2ccccc2)c2ncnc(N)c12 | -0.183
CCn1c2ccccc2c2cc(/C(C)=N/O)ccc21 | -0.188
Cc1cccc(NC(=S)NCC23C=CC(O2)C2C(=O)N(c4ccc(Cl)cc4)C(=O)C23)c1 (stereo unspecified) | -0.343
CCCCCC(=O)Nc1ccc(S(=O)(=O)Nc2nccnc2OC)cc1 | 0.0573
CC(C)NC(=O)COc1ncnc2sccc12 | 0.0373
COC(=O)C1=C(C)C(c2ccc(OC)cc2)NC(=S)N1 (stereo unspecified) | 0.41
COc1ccccc1C(=O)N(CN1CCCC1=O)c1cccc(Cl)c1 | 0.118
O=C(Oc1c(Cl)cc(Cl)c2cccnc12)c1cccc([N+](=O)[O-])c1 | active: 9.18
Cc1ccc(C(=O)NC(=S)Nc2ccc(S(=O)(=O)N3CCN(C)CC3)cc2)cc1 | 1.43
Cc1cccc(OCc2nc(-c3ccc(-n4cccc4)cc3)no2)c1 | -0.304
CCCOc1ccc(C(C(=O)OCCN(CC)CC)c2ccccc2)cc1 (stereo unspecified) | 2.43
Fc1ccc2c(c1)C(c1ccncc1)=NNC(c1cccnc1)=N2 | -0.00568
Cc1cnc(NC(=O)CN2CCN(c3ccccc3F)CC2)s1 | 0.0085
COc1ccc(NC(=O)CSc2nnc(CCC(=O)Nc3ccc(C)c(Cl)c3)n2C)cc1 | -0.167

SMILES | z-score
COCCNC(=O)c1cc(-c2cccnc2)nc2ccc(Br)cc12 | -0.266
Cc1c(C(=O)Nc2ccccc2C(=O)N2CCOCC2)cccc1[N+](=O)[O-] | -0.235
Cc1ccc(OCC(=O)NNC(=O)CCc2ccccc2)cc1 | -0.0742
COc1ccc(C(C(=O)NC2CCCCC2)N(C(=O)c2sc(C)nc2C)c2ccccc2C)cc1 (stereo unspecified) | -0.217
CCOC(=O)CSc1nnc(CNC(=O)c2cccs2)n1CCc1ccccc1 | -1
Cc1cc(C)n(-c2cc(N3CCN(C(=O)c4ccccc4C)CC3)ccc2[N+](=O)[O-])n1 | -1.2
Cc1noc(C)c1CSc1nnc2scc(-c3ccc(Cl)cc3)n12 | -0.707
CN1CCN(c2ccccc2NC(=O)Cc2ccc(Cl)cc2)CC1 | 0.652
N#CC1(Cc2ccccc2Cl)c2ccccc2C=CN1C(=O)c1ccccc1 (stereo unspecified) | 0.0771
O=C(c1ccccc1)c1c[nH]c2cc3c(cc2c1=O)OCCO3 | 0.171
Cc1cc(NC2CCCCC2)nc(-c2ccccc2O)n1 | -0.184
CC1CCC2(CC1)C(Nc1cccc(Cl)c1)=NC(=S)N2CC#N (stereo unspecified) | 2.23
COc1ccc2nc(NC(=O)CSc3ccccc3)sc2c1 | 0.0453
O=C(CN1C(=O)S/C(=C/c2cc(Br)cs2)C1=O)N1CCOCC1 | 0.159
COc1ccc(NC(=O)NC2CC3CCCC(C2)N3Cc2ccccc2)cc1 (stereo unspecified) | -0.409
COc1ccc2cc(Br)ccc2c1CC(=O)NC1CC(C)(C)NC(C)(C)C1 | active: 3.91
CC1=Nc2ccccc2/C1=C\c1nc(-c2ccc(F)cc2)oc1O | 0.833
CC(C)c1ccc(NC(=O)CN(Cc2ccccc2)S(C)(=O)=O)cc1 | 1.06
O=C(Nc1nc(-c2ccccn2)cs1)c1ncc(Cl)c(Cl)c1Cl | 0.59
Cc1sc(-n2c(C)cc(/C=N/n3cnnc3)c2C)c(C#N)c1C | -0.141
COC(=O)C1=C(C)NC2=C(C(=O)CCC2)C1c1cccs1 (stereo unspecified) | -0.223
CC(=O)Nc1ccc(SCC(=O)c2cc(C)n(-c3ccccc3F)c2C)cc1 | active: 4.45
CCOC(=O)C1CN(C(C)(C)C)C(=O)C1=O (stereo unspecified) | -0.258

SMILES | z-score
O=c1ccc(Cc2ccccn2)n[nH]1 | -0.0114
COc1ccccc1CN1C(=O)[C@@H]2C(CC(N)=O)NC3(C(=O)Nc4c3ccc(Cl)c4C)[C@@H]2C1=O (stereo partly specified) | -0.0132
CCn1c(SCC(=O)Nc2sc(C)c(C)c2C#N)nnc1C(C)C | -1.09
CCCCCn1c(SC(C)C(C)=O)nc2c1c(=O)[nH]c(=O)n2C (stereo unspecified) | -0.525
N#Cc1nc(COc2ccccc2)oc1NCCN1CCOCC1 | -0.209
CCC(=O)Nc1ccc(C(=O)CSc2nnc(-c3ccccc3F)n2C2CC2)cc1 | -0.261
Nc1ccc2nc3n(c(=O)c2c1)CCC3 | -0.342
COc1ccccc1NCc1ccc([N+](=O)[O-])s1 | -0.113
O=C1C2CCCN2c2ccc(S(=O)(=O)N3CCOCC3)cc2N1Cc1cccc(C(F)(F)F)c1 (stereo unspecified) | -0.398
O=C(CSCCSCC(=O)c1ccco1)c1ccco1 | 0.321
CSc1c(SCc2ccccc2)cnn(-c2ccccc2)c1=O | -1.29
Cn1nnc2cc(NC(=O)N3CC4(C)CC3CC(C)(C)C4)ccc21 (stereo unspecified) | 0.255
COc1ccccc1N1CCN(C(=O)CSc2nc3ccccc3[nH]2)CC1 | 0.112
Cc1ccc(S(=O)(=O)NNC(=O)c2sccc2-n2cccc2)cc1 | -0.0772
COc1ccc(C2=NN(CCC(=O)NCc3ccc4c(c3)OCO4)C(=O)CC2)cc1 | -0.312
CCOC(=O)c1c(C)oc(NC(=O)COc2ccc(Cl)cc2C)c1C#N | -0.342
O=C(NC1=NCCS1)c1cccc(NC(=O)c2ccco2)c1 | 0.0493
COc1ccc(O)c(/C=N\NC(=O)CCn2nnc3ccccc32)c1 | -0.125
COc1ccc(-c2cc(C(=O)N3CCN(C(c4ccccc4)c4ccccc4)CC3)no2)cc1 | -0.193
